Where a chain is given by its changes, count along the chain named. No constants are given. Whether binding was seen depends on the method and setting. In cells and extracts the contact can be indirect. Some binding calls cover weakened binding; strength is not graded here. Where a sequence is shown, tags or fusion partners need not be part of it. One block for each molecule: values may come before it.
Assays:
[1] = target: T1, wild-type CRY2 (CRY2-His-Myc) (human) (UniProt Q49AN0); test: co-IP; HEK293T co-transfected with WT or variant Cry2-His-Myc, Flag-CLOCK and Flag-Bmal1, without PER2 overexpression; lysis in 15 mM HEPES, 5 mM NaF, 300 mM NaCl, 1% NP-40; anti-c-Myc affinity gel 2 h at 4 °C; Western blot
T1 sequence: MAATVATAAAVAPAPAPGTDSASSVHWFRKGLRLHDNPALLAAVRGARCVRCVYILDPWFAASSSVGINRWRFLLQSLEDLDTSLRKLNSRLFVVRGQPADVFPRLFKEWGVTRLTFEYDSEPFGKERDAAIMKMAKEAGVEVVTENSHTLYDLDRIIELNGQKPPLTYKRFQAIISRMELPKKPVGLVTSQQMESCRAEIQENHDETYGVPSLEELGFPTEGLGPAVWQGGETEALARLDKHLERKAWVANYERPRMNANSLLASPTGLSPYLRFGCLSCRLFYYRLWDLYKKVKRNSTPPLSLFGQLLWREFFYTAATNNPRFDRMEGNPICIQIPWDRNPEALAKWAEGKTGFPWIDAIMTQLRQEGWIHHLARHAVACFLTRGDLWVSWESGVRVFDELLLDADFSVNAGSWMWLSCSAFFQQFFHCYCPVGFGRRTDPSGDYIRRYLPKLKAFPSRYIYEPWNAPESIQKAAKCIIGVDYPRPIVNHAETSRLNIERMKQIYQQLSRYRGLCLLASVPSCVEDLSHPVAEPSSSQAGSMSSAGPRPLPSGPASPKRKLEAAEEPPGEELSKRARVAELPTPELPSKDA

The chains behind the UniProt entries cited, without tags or fusion partners.
UniProt Q9WTL8: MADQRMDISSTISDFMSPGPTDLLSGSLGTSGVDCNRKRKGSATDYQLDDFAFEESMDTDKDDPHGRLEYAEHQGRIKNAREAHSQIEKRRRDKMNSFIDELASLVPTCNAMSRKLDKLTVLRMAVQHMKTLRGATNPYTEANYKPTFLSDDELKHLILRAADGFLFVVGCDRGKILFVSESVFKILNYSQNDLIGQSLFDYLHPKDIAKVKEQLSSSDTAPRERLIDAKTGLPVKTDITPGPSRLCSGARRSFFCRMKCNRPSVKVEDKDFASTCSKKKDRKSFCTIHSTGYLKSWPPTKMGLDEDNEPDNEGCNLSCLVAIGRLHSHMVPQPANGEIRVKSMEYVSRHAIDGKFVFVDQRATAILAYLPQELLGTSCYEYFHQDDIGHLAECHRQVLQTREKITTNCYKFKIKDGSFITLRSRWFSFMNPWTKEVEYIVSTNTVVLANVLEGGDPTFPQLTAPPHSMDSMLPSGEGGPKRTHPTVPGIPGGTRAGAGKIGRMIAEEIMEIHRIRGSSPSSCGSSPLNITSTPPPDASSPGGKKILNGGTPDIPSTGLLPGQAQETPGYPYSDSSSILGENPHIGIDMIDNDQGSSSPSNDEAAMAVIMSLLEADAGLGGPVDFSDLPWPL
UniProt O54943: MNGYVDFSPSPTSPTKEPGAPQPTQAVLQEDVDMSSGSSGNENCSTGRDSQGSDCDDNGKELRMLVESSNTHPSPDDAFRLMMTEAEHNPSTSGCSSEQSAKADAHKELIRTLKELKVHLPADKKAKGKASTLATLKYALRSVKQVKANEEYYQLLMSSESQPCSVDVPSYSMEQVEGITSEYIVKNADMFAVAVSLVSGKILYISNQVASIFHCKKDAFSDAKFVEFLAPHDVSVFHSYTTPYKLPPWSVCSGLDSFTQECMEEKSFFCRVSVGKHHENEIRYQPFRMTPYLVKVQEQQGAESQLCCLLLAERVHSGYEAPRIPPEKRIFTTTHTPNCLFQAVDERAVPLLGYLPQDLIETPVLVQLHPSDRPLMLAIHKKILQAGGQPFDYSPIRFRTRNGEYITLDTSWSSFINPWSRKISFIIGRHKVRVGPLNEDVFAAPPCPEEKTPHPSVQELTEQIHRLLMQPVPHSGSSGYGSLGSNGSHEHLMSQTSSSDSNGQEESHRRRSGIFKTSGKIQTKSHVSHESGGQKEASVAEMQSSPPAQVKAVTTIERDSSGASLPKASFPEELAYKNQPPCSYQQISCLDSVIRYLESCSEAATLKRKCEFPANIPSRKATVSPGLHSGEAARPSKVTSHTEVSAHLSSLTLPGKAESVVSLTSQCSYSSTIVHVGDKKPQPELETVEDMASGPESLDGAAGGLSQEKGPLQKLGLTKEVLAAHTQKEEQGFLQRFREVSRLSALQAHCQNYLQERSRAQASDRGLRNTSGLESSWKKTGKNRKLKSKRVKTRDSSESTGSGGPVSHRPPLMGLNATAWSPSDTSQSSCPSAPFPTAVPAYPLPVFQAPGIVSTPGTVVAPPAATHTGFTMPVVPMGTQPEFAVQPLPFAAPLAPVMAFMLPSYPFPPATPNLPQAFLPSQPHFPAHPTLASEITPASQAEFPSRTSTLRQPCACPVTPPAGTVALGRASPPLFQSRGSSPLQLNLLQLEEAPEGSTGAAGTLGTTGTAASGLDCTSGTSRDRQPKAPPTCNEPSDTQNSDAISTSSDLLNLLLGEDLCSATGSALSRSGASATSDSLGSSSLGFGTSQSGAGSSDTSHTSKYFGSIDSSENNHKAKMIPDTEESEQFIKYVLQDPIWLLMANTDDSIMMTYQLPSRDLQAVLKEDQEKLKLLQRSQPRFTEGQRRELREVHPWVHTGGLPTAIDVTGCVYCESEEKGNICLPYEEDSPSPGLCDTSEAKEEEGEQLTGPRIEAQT

[2] = target: T1, wild-type CRY2 (CRY2-His-Myc) (human); test: co-IP; HEK293T co-transfected with WT or variant Cry2-His-Myc, Flag-CLOCK, Flag-Bmal1 and pFLAG-CMV-Per2 (PER2 overexpressed); lysis in 15 mM HEPES, 5 mM NaF, 300 mM NaCl, 1% NP-40; anti-c-Myc affinity gel 2 h at 4 °C; Western blot
[3] = target: T2, p.Ser420Phe CRY2 (CRY2-His-Myc variant) (human) (UniProt Q49AN0); test: as above
T2 sequence: T1 sequence with S420F

[4] = target: T1, wild-type CRY2 (CRY2-His-Myc) (human); test: co-IP; pairwise: HEK293T with WT or variant Cry2-His-Myc and either Flag-PER2 or Flag-CLOCK alone; MYC resin; Western blot
[5] = target: T2, p.Ser420Phe CRY2 (CRY2-His-Myc variant) (human); test: as above
[6] = target: T1, wild-type CRY2 (CRY2-His-Myc) (human); test: co-IP; HEK293T transfected with WT or variant Cry2-His-Myc, pBind-FBXL3-Gal4 and pFLAG-CMV-FBXL21; lysis in 15 mM HEPES, 5 mM NaF, 300 mM NaCl, 1% NP-40; anti-c-Myc affinity gel 2 h at 4 °C; Western blot
[7] = target: T2, p.Ser420Phe CRY2 (CRY2-His-Myc variant) (human); test: as above
[8] = target: T2, p.Ser420Phe CRY2 (CRY2-His-Myc variant) (human); test: co-IP; HEK293T co-transfected with WT or variant Cry2-His-Myc, Flag-CLOCK and Flag-Bmal1, without PER2 overexpression; lysis in 15 mM HEPES, 5 mM NaF, 300 mM NaCl, 1% NP-40; anti-c-Myc affinity gel 2 h at 4 °C; Western blot

Molecule: FLAG-BMAL1 (from UniProt Q9WTL8 1-632)
binding [1]: binds
binding [2]: binds
binding [3]: binds

B1: FBXL3-Gal4 (protein, UniProt Q9UKT7 1-428)
chain: MKRGGRDSDRNSSEEGTAEKSKKLRTTNEHSQTCDWGNLLQDIILQVFKYLPLLDRAHASQVCRNWNQVFHMPDLWRCFEFELNQPATSYLKATHPELIKQIIKRHSNHLQYVSFKVDSSKESAEAACDILSQLVNCSLKTLGLISTARPSFMDLPKSHFISALTVVFVNSKSLSSLKIDDTPVDDPSLKVLVANNSDTLKLLKMSSCPHVSPAGILCVADQCHGLRELALNYHLLSDELLLALSSEKHVRLEHLRIDVVSENPGQTHFHTIQKSSWDAFIRHSPKVNLVMYFFLYEEEFDPFFRYEIPATHLYFGRSVSKDVLGRVGMTCPRLVELVVCANGLRPLDEELIRIAERCKNLSAIGLGECEVSCSAFVEFVKMCGGRLSQLSIMEEVLIPDQKYSLEQIHWEVSKHLGRVWFPDMMPTW
binding [6]: binds
binding [7]: no binding

B3: FLAG-CLOCK (protein, UniProt O15516 1-846)
chain: MLFTVSCSKMSSIVDRDDSSIFDGLVEEDDKDKAKRVSRNKSEKKRRDQFNVLIKELGSMLPGNARKMDKSTVLQKSIDFLRKHKEITAQSDASEIRQDWKPTFLSNEEFTQLMLEALDGFFLAIMTDGSIIYVSESVTSLLEHLPSDLVDQSIFNFIPEGEHSEVYKILSTHLLESDSLTPEYLKSKNQLEFCCHMLRGTIDPKEPSTYEYVKFIGNFKSLNSVSSSAHNGFEGTIQRTHRPSYEDRVCFVATVRLATPQFIKEMCTVEEPNEEFTSRHSLEWKFLFLDHRAPPIIGYLPFEVLGTSGYDYYHVDDLENLAKCHEHLMQYGKGKSCYYRFLTKGQQWIWLQTHYYITYHQWNSRPEFIVCTHTVVSYAEVRAERRRELGIEESLPETAADKSQDSGSDNRINTVSLKEALERFDHSPTPSASSRSSRKSSHTAVSDPSSTPTKIPTDTSTPPRQHLPAHEKMVQRRSSFSSQSINSQSVGSSLTQPVMSQATNLPIPQGMSQFQFSAQLGAMQHLKDQLEQRTRMIEANIHRQQEELRKIQEQLQMVHGQGLQMFLQQSNPGLNFGSVQLSSGNSSNIQQLAPINMQGQVVPTNQIQSGMNTGHIGTTQHMIQQQTLQSTSTQSQQNVLSGHSQQTSLPSQTQSTLTAPLYNTMVISQPAAGSMVQIPSSMPQNSTQSAAVTTFTQDRQIRFSQGQQLVTKLVTAPVACGAVMVPSTMLMGQVVTAYPTFATQQQQSQTLSVTQQQQQQSSQEQQLTSVQQPSQAQLTQPPQQFLQTSRLLHGNPSTQLILSAAFPLQQSTFPQSHHQQHQSQQQQQLSRHRTDSLPDPSKVQPQ
binding [1]: binds
binding [8]: binds
binding [2]: binds
binding [3]: binds
binding [4]: binds
binding [5]: binds

Further lines, results first:

binding [2]: binds
binding [3]: binds
binding [4]: binds
binding [5]: binds
Molecule: FLAG-PER2 (from UniProt O54943 1-1257)

binding [6]: binds
binding [7]: no binding
B2: FLAG-FBXL21 (protein, UniProt Q9UKT6 1-434)
chain: MKRNSLSVENKIVQLSGAAKQPKVGFYSSLNQTHTHTVLLDWGSLPHHVVLQIFQYLPLLDRACASSVCRRWNEVFHISDLWRKFEFELNQSATSSFKSTHPDLIQQIIKKHFAHLQYVSFKVDSSAESAEAACDILSQLVNCSIQTLGLISTAKPSFMNVSESHFVSALTVVFINSKSLSSIKIEDTPVDDPSLKILVANNSDTLRLPKMSSCPHVSSDGILCVADRCQGLRELALNYYILTDELFLALSSETHVNLEHLRIDVVSENPGQIKFHAVKKHSWDALIKHSPRVNVVMHFFLYEEEFETFFKEETPVTHLYFGRSVSKVVLGRVGLNCPRLIELVVCANDLQPLDNELICIAEHCTNLTALGLSKCEVSCSAFIRFVRLCERRLTQLSVMEEVLIPDEDYSLDEIHTEVSKYLGRVWFPDVMPLW

Source: paper PMC10731238
